According to article PMC6919601, “Identification of Plasmodium dipeptidyl aminopeptidase allosteric inhibitors by high throughput screening” (PLoS ONE, 2019):
Among all 110,000 compounds or so, about 230 (0.21%) showed an effect of 50% or more. This is one part of the list.

target: DPAP1 (Plasmodium falciparum, UniProt Q8IIJ9); test: primary screen, percent inhibition; read by cleavage of a fluorogenic dipeptide substrate; higher = more effect of the substance; set-up: species or system P. falciparum D10 trophozoite lysates; single well
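Note: 30 min substrate incubation versus DMSO and 10 µM JCP410 controls.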

Chain of DPAP1 (Q8IIJ9 whole entry, looked up): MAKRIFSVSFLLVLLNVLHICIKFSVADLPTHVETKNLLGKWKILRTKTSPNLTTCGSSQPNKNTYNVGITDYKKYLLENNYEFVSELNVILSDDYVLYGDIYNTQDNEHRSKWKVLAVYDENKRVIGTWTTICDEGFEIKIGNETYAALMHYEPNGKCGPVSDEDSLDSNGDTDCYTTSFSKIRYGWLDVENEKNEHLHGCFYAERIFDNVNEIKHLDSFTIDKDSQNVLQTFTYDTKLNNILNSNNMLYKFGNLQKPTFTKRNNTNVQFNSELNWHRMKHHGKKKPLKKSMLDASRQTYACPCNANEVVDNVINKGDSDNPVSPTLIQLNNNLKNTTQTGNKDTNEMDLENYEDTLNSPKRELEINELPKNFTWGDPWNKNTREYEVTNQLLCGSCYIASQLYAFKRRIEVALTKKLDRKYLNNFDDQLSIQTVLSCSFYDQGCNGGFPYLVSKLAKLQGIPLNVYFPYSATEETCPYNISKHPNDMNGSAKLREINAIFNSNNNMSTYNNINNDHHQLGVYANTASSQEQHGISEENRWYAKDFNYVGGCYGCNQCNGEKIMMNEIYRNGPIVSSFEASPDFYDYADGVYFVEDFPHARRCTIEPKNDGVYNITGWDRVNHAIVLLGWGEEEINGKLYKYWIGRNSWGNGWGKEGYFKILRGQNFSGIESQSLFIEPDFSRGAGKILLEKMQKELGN

Structure (SMILES) | % Inhibition @ 10 uM [%]
COC(=O)c1sccc1NC(=O)c1nc(-c2ccc(Cl)cc2)n2c1CCCCC2 | 6.77
CC(CCO)Nc1nc2c(c(=O)n(C)c(=O)n2C)n1Cc1cccc(Br)c1 (centres unmarked) | -0.339
O=c1c2c([nH]c(=S)n1C1CCCC1)-c1ccccc1CC21CCCC1 | -0.436
CCO/C(O)=C1\C(C)=NC2=C(C(=O)CCC2)C1c1cc(Cn2cnc3ccccc32)cs1 (centres unmarked) | -1.05
O=C(NCc1ccccc1)c1cc2n(n1)C(C(F)(F)F)CC(c1ccc3c(c1)OCO3)N2 (centres unmarked) | 0.111
CC(C)NC(=O)C1CCN(S(=O)(=O)c2ccc(Cl)cc2)CC1 | 4.74
O=C(O)Cc1ccc(NC(=O)c2ccc(Cl)c(Cl)c2)cc1 | 4.75
COc1ccc(C)cc1NC(=O)c1cnn2c(C(F)F)cc(-c3ccccc3)nc12 | 2.21
O=C(c1ccc(F)cc1)c1coc2ccccc2c1=O | -5.14
Cc1ccc(CNC(=O)Cn2ncn3nc(-c4cccs4)cc3c2=O)cc1 | -2.85
COc1ccc(-c2nn(C)c3sc(C(=O)N4CCCCCC4)cc23)cc1OC | 4.51
Cc1cc(C(=O)N(C)Cc2ccccc2)n[nH]1 | 1.76
Cc1cc(/C=C2/SC(=O)N(C)C2=O)c(C)n1-c1ccc(Br)cc1 | -0.995
Cc1cc(C)cc(NS(=O)(=O)c2ccc(NC(=O)Cc3ccccc3)cc2)c1 | -0.173
Cn1cc(CCCC(=O)NCc2ccc3c(c2)OCO3)c2ccccc21 | 3.66
COc1ccc(C2C(C(=O)c3ccc(OC(C)C)cc3)=C(O)C(=O)N2c2ccccn2)cc1 (centres unmarked) | -5.71
Cc1cc(NC(=O)c2ccc(NC(=O)C(C)C)cc2)no1 | -2.12
O=C1c2cccnc2C(=O)N1Cc1ccc(F)cc1S(=O)(=O)NCc1ccc2c(c1)OCO2 | -7.09
COc1ccc2oc(=O)cc(CN(CCCOC(C)C)Cc3ccco3)c2c1 | 1.67
Cc1ccccc1-c1noc(N)c1C#N | -1.08
COC(=O)c1[nH]c2ccc(F)cc2c1NS(=O)(=O)c1ccc2nc(O)sc2c1 | 0.776
O=C(NC1CCN(c2ncccn2)CC1)C1CCN(c2cnccn2)CC1 | 6.89
COc1cc(OC)c(OC)cc1CNCCNC(=O)c1nonc1N | 0.00706
CC1(C)CC(O)=C(C(NC(=O)c2cccnc2)(C(F)(F)F)C(F)(F)F)/C(=N/Cc2ccccc2)C1 | -4.35
Cc1ccc(S(=O)(=O)NC(=O)Nc2ccc(Cl)c(C(F)(F)F)c2)cc1 | -1.06

Structure (SMILES) | % Inhibition @ 10 uM [%]
Cc1cccc(C2=N/C(=C\c3cc4c(cc3Cl)OCO4)C(=O)O2)c1 | 1.25
O=C(NC(Cc1ccccc1)C(=O)O)/C(=C/c1ccc(Cl)cc1)NC(=O)c1ccco1 (centres unmarked) | 7.1
N#CC1=C(N)Oc2[nH]nc(-c3ccc(Cl)cc3)c2C1CCc1ccccc1 (centres unmarked) | 6.58
CCN(CC)C1CC(=O)N(c2c(C)cccc2C)C1=O (centres unmarked) | -15.4
COc1ccc(OC)c(N(CC(=O)NC2CCCC2)S(C)(=O)=O)c1 | -5.4
CCc1ccc(S(=O)(=O)c2nnn3c2nc(NC2CC2)c2cc(Cl)ccc23)cc1 | 7.82
CC(C)CCNC(=O)c1ccc2nc(N3CCOCC3)sc2c1 | -2.37
CC1CCN(S(=O)(=O)c2ccc(NC(=O)c3cccs3)cc2)CC1 | -5.96
CC1=CC2=NC(=O)/C(=C\c3cc(C)n(-c4cc(C)cc(C)c4)c3C)C(=N)N2O1 | -1.43
COc1ccccc1CNC(=O)[C@H](CCSC)N1Cc2ccccc2C1=O | 2.93
COc1ccc(NC(=O)COc2ccc([N+](=O)[O-])cc2)cc1 | -2.62
N#CC1=C(SCc2ccccc2)SCNC1=O | -3.53
O=C(O)C1CCCCC1C(=O)Nc1cccc(C(F)(F)F)c1 (centres unmarked) | -2.85
COc1ccc(/C=C2/NC(=O)N(Cc3cccc(C)c3)C2=O)cc1O | -10
O=C(O)COc1ccc(/C=C2\SC(=O)N(Cc3ccc(F)cc3)C2=O)cc1 | -5.26
Cc1ccc(S(=O)(=O)n2ncc3c2CCN(C(=O)OC(C)(C)C)C3)cc1 | 0.708
CC(NC(=O)Cn1ncc2c3ccccc3n(Cc3ccccc3)c2c1=O)c1ccccc1 (centres unmarked) | 3.4
CCOC(=O)COc1nc(C)cc(C)c1C#N | 4.54
CN1CCC(N2CCCC3CCCCC32)CC1 (centres unmarked) | -3.6
CCOC(=O)N1CCC(NCC(C)c2ccccc2)CC1 (centres unmarked) | 1.57
O=C(c1cccc(F)c1)N1CCN(C2CCC(c3ccccc3)CC2)CC1 (centres unmarked) | 3.86
Cc1nc2ncnn2c(C)c1CCC(=O)O | -2.83
O=C(COCc1cc(-c2ccco2)on1)N1CCC2(CC1)OCCO2 | -6.13
CNC(=O)c1c(N)sc2c1CCCCC2 | 26.4
O=[N+]([O-])c1ccc(N2CCCC2)c2ncccc12 | 0.00784

Structure (SMILES) | % Inhibition @ 10 uM [%]
COc1ccc(NS(=O)(=O)c2ccc(NC(=O)Nc3cccc4ccccc34)cc2)cc1 | 1.89
C=CCNC(=O)c1cc(-c2ccc3c(c2)OCO3)on1 | 1.82
Cc1cc(Oc2ccccc2F)nc(NCc2ccccc2)n1 | 4.74
COc1cc(-c2nc(S(=O)(=O)c3ccccc3)c(N3CCOCC3)o2)cc(OC)c1OC | -5.49
Cc1ccc(Sc2ccc(/C=C3\C(=N)N4N=C(N5CCOCC5)SC4=NC3=O)o2)cc1 | 3.32
Cc1ccc(OCC(=O)NCCCCN2CCOCC2)cc1 | -6.67
CCCCN(CCCC)CCCn1cnc2c3cc(OC)ccc3nc-2c1O | 4.8
Cc1ccc2oc(C(=O)NC3CCS(=O)(=O)C3)c(C)c2c1 (centres unmarked) | -3.18
COc1ccc([C@H]2[C@H](C(=O)O)[C@H](c3ccc(OC)cc3)[C@H]2C(=O)O)cc1 | -2.41
CCOCCO/C(O)=C1\C(C)=NC2=C(C(=O)CC(c3ccccc3)C2)C1c1ccccc1OCC (centres unmarked) | -5.28
O=C(Cc1ccc(Br)cc1)NCCN1CCOCC1 | -0.357
CCN(c1ccccc1)S(=O)(=O)c1ccc(NC(=O)c2ccccc2Cl)cc1 | -0.312
CCN(CC)CCN(CC)CC(C)c1ccccc1 (centres unmarked) | -6.62
Cc1cc(C)c(S(=O)(=O)N(C)Cc2ccccc2)c(C)c1 | -2.54
Nc1nc(N2CCCCC2)ncc1F | 6.49
Cc1nn(CC(=O)N2CC(C)CC(C)C2)c(=O)c2cc3sccc3n12 (centres unmarked) | -3.35
CC1CCc2nn(CC(=O)NC3CCCc4ccccc43)cc2C1 (centres unmarked) | 4.95
CN(Cc1ccco1)c1ncnc2onc(-c3ccc(F)cc3)c12 | 4.74
COc1cc(CNCCO)ccc1OCc1ccccc1 | -2.83
Cn1c(=O)c2c(ncn2Cc2ccc(F)cc2)n(C)c1=O | -7.94
O=C(Nc1cccc(Cl)c1)Nc1cccc(Cl)c1Cl | 3.1
NC(=O)COc1ccccc1/C=C1/SC(Nc2cccc(C(F)(F)F)c2)=NC1=O | 10.5
COc1ccccc1C1C2=C(O)CC(C)(C)CC2=Nc2nc(SCCN(C)C)nc(O)c21 (centres unmarked) | 1.02
COc1ccc(CN2CCSCC2)c(C)c1C | -1.86
Cc1ccc2c(CC(=O)N(Cc3ccccc3Cl)C3CCS(=O)(=O)C3)coc2c1 (centres unmarked) | -2.4

Structure (SMILES) | % Inhibition @ 10 uM [%]
C=CCOC(=O)C1=C(C)NC(=O)NC1c1ccccc1Cl (centres unmarked) | 1.83
COc1ccc(-n2nc3c(c2NC(=O)/C=C\c2ccc4c(c2)OCO4)CS(=O)(=O)C3)cc1 | 18.3
Cc1cc(C)c(S(=O)(=O)NCCc2ccncc2)c(C)c1 | 3.48
COc1ccc(-n2nnc(-c3nsc(NC(=O)c4ccccc4C)n3)c2C)cc1 | -3.22
CN1CCN(Cc2c(O)ccc3ccccc23)CC1 | -3.92
CCOC(=O)c1cnc2c(Cl)cccc2c1O | -0.267
CCC(NCCN(CC)CC)=C1C(=O)NC(=O)NC1=O | 12.8
Cc1ccc(NC(=O)CN(C)S(=O)(=O)c2cc(Cl)ccc2Cl)c(C)c1 | -0.469
O=C(Cn1nc(C(F)(F)F)cc1C1CC1)Nc1ccccc1F | 1.17
CN1C(=O)C(=N)c2c3ccccc3c(O)c3c(N4CCCCC4)ccc1c23 | 0.51
COc1ccc(CNCc2c(C(=O)O)c(C)n(Cc3ccccc3F)c2C)cc1 | -9.31
O=C1CC(c2cc(F)cc(F)c2)c2c(O)nc(SCc3ccccc3)nc2N1 (centres unmarked) | 2.25
CCOC(=O)c1c(NC(=O)c2ccc(Cl)cc2)sc2c1CC(C)(C)OC2 | -8.7
CCN1C(=O)/C(=C/c2ccc(OC)c3ccccc23)C(=O)NC1=S | 3.76
COc1ccccc1CNC(=O)C1CCC(CNS(=O)(=O)c2ccccc2)CC1 (centres unmarked) | -8.34
O=c1c(CN2CC=C(c3ccc(F)cc3)CC2)coc2ccccc12 | -5.31
C=CCN1C(=O)C2(C(C#N)=C(N)Oc3n[nH]c(C)c32)c2ccccc21 (centres unmarked) | 2.38
Cc1cccc(C(=O)NC2(C(F)(F)F)C(=O)Nc3c2c(=O)[nH]c(=O)n3-c2ccc(Cl)cc2)c1 (centres unmarked) | -0.661
COc1cc(C(=O)Nc2ccc(Cl)nc2)cc(OC)c1OC | -6.17
Cc1ccc2oc(C(=O)Nc3nonc3C)c(C)c2c1 | 3.51
CCN1CCC(C#N)(NC(=O)[C@H](C[C@H](C)c2ccccc2)NC(=O)c2ccc(-c3ccccc3Cl)nc2)CC1 | -1.82
Cc1ccc2nc3c(cc(C#N)c(=O)n3CCc3ccccc3)c(=O)n2c1 | -0.551
CC(c1ccccc1)N1C(=O)c2cccnc2C1=O (centres unmarked) | -7.15
